Results are given in words; binding and its absence hold for the method and conditions named. In cells and extracts the contact can be indirect. Some binding calls cover weakened binding; strength is not graded here. For some assays here: Tags and fused reporters may be left off the sequences shown.

The chains behind the UniProt entries cited, without tags or fusion partners.
UniProt P26038: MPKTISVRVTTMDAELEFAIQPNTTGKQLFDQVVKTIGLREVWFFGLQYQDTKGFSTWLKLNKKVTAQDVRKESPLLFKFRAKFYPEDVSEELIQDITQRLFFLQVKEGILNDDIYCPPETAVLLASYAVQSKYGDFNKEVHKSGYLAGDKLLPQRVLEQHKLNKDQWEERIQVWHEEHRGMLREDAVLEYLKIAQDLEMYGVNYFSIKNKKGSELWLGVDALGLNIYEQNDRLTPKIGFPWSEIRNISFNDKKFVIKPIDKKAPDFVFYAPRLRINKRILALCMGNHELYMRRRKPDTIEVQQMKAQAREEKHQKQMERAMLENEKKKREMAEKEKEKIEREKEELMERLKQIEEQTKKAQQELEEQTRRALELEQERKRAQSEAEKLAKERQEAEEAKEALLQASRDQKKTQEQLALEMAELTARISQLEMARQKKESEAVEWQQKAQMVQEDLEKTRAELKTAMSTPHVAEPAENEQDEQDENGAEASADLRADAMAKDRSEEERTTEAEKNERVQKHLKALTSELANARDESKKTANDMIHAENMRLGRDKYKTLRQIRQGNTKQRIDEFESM
UniProt P35241: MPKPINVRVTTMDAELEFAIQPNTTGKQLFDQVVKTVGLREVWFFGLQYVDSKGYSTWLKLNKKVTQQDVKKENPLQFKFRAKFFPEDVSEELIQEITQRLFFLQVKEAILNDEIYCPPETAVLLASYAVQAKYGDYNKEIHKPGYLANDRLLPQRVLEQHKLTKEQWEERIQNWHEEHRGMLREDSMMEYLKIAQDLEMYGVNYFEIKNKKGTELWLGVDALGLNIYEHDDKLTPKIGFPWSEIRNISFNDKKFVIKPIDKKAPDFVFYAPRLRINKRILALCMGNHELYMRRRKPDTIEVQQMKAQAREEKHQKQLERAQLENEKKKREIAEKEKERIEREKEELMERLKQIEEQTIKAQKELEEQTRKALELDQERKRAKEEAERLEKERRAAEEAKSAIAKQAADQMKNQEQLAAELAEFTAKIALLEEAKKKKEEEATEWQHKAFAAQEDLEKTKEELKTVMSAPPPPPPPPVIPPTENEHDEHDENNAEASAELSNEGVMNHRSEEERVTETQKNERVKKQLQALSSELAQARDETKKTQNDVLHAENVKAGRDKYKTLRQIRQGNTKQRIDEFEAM

One assay addresses T1, EGFP-PH (UniProt P20936).
T1 sequence: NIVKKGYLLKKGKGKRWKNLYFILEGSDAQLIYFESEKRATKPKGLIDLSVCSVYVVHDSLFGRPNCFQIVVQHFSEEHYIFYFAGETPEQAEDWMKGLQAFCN
Put plainly: co-IP; merlin cotransfected with EGFP-RasGAP constructs in Sc4 cells (merlin-deficient).

In another assay the target is T2, EGFP-RasGAP (UniProt P20936).
T2 sequence: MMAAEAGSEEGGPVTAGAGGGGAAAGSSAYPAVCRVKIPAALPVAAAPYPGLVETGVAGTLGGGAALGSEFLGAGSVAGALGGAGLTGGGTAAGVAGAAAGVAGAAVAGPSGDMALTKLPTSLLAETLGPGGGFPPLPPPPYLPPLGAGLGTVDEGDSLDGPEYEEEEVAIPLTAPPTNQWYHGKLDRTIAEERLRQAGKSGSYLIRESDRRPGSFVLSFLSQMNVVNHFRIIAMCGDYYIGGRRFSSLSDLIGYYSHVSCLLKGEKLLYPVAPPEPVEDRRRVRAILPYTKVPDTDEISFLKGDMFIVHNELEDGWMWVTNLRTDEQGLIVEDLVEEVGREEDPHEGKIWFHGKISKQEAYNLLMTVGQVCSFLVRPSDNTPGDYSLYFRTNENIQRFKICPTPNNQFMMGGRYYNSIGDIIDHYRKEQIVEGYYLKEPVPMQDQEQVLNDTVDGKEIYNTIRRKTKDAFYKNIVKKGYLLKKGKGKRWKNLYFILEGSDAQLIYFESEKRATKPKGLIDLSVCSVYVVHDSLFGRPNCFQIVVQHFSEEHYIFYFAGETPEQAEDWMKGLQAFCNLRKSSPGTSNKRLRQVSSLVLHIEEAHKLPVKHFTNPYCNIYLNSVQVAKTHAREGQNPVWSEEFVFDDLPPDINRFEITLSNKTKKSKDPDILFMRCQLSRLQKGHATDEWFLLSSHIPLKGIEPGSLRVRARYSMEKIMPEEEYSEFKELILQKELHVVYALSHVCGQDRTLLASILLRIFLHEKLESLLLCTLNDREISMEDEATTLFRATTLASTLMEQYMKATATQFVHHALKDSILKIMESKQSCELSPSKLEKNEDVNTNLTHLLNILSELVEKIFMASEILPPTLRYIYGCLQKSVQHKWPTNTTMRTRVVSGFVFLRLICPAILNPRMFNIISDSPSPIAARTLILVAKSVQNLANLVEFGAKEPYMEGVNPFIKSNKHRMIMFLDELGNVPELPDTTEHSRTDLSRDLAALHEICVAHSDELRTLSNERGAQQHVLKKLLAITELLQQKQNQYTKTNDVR
Described as above.

Assay [1] deals with T3, GST-RasGAP (construct not told; GST pull-downs of Figures S5 and S6) (UniProt P20936).
T3 sequence: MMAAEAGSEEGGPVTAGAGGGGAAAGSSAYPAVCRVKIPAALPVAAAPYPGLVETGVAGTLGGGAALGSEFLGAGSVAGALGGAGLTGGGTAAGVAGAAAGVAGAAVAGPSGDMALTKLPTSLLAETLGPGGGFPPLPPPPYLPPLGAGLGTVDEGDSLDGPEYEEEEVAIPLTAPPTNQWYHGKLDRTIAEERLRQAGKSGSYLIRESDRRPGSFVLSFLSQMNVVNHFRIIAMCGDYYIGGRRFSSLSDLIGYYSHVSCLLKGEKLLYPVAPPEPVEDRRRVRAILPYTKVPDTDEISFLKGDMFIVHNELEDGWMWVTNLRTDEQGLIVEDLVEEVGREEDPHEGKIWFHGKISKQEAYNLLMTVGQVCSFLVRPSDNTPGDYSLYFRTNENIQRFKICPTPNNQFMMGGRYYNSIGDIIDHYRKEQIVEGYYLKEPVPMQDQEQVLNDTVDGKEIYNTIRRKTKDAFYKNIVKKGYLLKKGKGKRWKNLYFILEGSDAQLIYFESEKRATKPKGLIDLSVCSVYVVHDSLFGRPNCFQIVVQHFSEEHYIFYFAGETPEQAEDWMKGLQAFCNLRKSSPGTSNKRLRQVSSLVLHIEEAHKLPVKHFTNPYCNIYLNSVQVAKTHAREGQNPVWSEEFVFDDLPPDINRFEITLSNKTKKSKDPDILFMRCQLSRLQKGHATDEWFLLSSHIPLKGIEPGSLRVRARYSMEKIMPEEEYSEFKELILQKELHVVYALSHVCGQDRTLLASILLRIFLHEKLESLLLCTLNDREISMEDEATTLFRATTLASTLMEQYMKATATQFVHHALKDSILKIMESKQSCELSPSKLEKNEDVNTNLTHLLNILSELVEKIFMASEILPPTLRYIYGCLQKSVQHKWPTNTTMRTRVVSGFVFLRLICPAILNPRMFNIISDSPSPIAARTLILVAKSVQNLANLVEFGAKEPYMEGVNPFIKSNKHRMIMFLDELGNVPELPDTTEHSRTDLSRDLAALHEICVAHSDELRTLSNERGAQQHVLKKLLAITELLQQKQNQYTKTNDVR
Put plainly: pull-down; GST pulldown of merlin iso1 and iso2 S518A overexpressed in 293 cells; only the target purified.

In assay [2] the target is T3, GST-RasGAP (construct not told; GST pull-downs of Figures S5 and S6). In words: pull-down; GST pulldown with the lysate from 293 cells, which express all ERMs and merlin; only the target purified.
Assay [3] has as its target GST-merlin FERM (aa 1–313) (UniProt P35240). Put plainly: pull-down; GST-merlin fragments pull down nontagged FL KRas4B overexpressed in 293 cells by transient transfection; western blot; only the target purified.
Assay [4] has as its target T4, endogenous merlin of RT4 cells (rat (endogenous in RT4)) (UniProt Q63648).
T4 sequence: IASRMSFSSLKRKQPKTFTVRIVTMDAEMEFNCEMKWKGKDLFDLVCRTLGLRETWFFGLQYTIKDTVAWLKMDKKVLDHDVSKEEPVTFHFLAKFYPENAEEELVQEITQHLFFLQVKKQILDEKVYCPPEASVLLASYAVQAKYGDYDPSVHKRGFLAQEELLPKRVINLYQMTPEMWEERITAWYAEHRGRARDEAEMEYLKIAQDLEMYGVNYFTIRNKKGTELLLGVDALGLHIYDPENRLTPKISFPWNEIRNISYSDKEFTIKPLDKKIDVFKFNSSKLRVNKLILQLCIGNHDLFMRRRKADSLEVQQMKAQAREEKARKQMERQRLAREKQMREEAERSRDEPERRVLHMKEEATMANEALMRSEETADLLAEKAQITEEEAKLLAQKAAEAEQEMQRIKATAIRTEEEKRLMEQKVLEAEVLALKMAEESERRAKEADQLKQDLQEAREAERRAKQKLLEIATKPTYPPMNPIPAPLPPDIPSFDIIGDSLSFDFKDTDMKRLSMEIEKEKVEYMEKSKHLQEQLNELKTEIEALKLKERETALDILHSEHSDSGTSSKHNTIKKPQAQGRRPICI
In words: co-IP; endogenous proteins from confluent RT4 cells; western blot.

The target in a further assay is GST-merlin S518A (UniProt P35240). Put plainly: pull-down; GST-merlin S518A with lysate from RT4/Tet-NF2 S518D cells; western blot; only the target purified.

“merlin cotransfected in Sc4 cells (from UniProt P35240 1-595)”: the binding entry with EGFP-PH and in the assay with EGFP-RasGAP was “binds” in each case.

Regarding “merlin isoform 1 S518A overexpressed in 293 cells (from UniProt P35240 1-595)”, in assay [1], the binding result is reported as “binds”.

Turning to “moesin of 293 cells (from UniProt P26038 1-577)”, the binding entry in assay [2] is on record as “no binding”. Turning to “nontagged full-length KRas4B (from UniProt P01116-2 1-188)”, the binding entry in assay [3] was “binds”.

Turning to “radixin of 293 cells (from UniProt P35241 1-583)”, in assay [2], the binding result is “binds weakly”.

B1: endogenous RasGAP of RT4 cells (protein, UniProt P50904 1-1038)
chain: MMAAEAGSEEGGPATAGTGGAAATGSSAYPAACRVKLPAAPPMAVAPCPGLADTDLAAALGGGAASGSGFLGTGPVSGVLGGAALTGGAAAGVAGAAAAGPAGDIALTKGTLSLPAETLGPGGGFPPLPPPPLLPPLGSGLGTVDEGDSLDGPEYEEEEVAIPLTAPPTNQWYHGKLDRTIAEERLRQAGKSGSYLIRESDRRPGSFVLSFLSQTNVVNHFRIIAMCGDYYIGGRRFSSLSDLIGYYSHVSCLLKGEKLLYPVAPPEPVEDRRRVRAILPYTKVPDTDEISFLKGDMFIVHNELEDGWMWVTNLRTDEQGLIVEDLVEEVGREEDPHEGKIWFHGKISKQEAYNLLMTVGQVCSFLVRPSDNTPGDYSLYFRTNENIQRFKICPTPNNQFMMGGRYYNSIGDIIDHYRKEQIVEGYYLKEPVPMQDQGQVLNDTVDGKEIYNTIRRKTKDAFYKNIVKKGYLLKKGKGKRWKNLYFILEGSDAQLIYFESEKRATKPKGLIDLSVCSVYVVHDSLFGRPNCFQIVVQHFSEEHYIFYFAGETPEQAEDWMKGLQAFCSLRKSSPGTSNKRLRQVSSLVLHIEEAHKLPVKHFTNPYCNIYLNSVQVAKTHAREGQNPVWSEEFVFDDLPPDINRFEITLSNKTKKSKDPDILFMRCQLSRLQKGHATDEWFLLSSHIPLKGIEPGSLRVRARYSMEKIMPEEEYSEFKELILQKELHVVYALSHVCGQDRTLLASILLKIFLHEKLESLLLCTLNDREISMEDEATTLFRATTLASTLMEQYMKATATQFVHHALKDSILKIMESKQSCELSPSKLEKNEDVNTNLAHLLSILSELVEKIFMASEILPPTLRYIYGCLQKSVQHKWPTNNTMRTRVVSGFVFLRLICPAILNPRMFNIISDSPSPIAARTLTLVAKSVQNLANLVEFGAKEPYMEGVNPFIKSNKHRMIMFLDELGNVPELPDTTEHSRTDLSRDLAALHEICVAHSDELRTLSNERGVQQHVLKKLLAITELLQQKQNQYTKTNDVR
On to B1, for which the binding result (in assay [4]; with GST-merlin S518A) was “binds” each time.

Source of the values: article PMC6756068, “The NF2 tumor suppressor merlin interacts with Ras and RasGAP, which may modulate Ras signaling” (Oncogene, 2019).
